Assay results reported in the supplement of paper PMC10126150.
Sequences with one replicate were seen in a single cluster, so their values are uncertain.

These sequences were tested on ATP (assay: switch fluorescence ratio, 500 uM ATP over buffer (Cy3 cluster intensity, sum of 5 cycles each) (fold (ratio)); higher = stronger signal-on switching upon ATP binding; sequences stand for … in TCGTCGGCAGCGTCAGATGTGTATAAGAGACAGTTTTTTTTTTTTTTTTTTTTTTTTT…TC). Conditions: aptamer strand: ATP DNA aptamer (quencher-CACCTGGGGGAGTATTGCGGAGGAAGG + anchor), 100 nM annealed; ATP concentration: 500 uM; one replicate.
Procedure, shortened: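 For every switch-domain sequence, the fluorescence ratio is the mean of per-cluster values, each being summed target-cycle Cy3 intensity over summed buffer-cycle Cy3 intensity. Clusters outside 100-1000 RFU were excluded. On a modified Illumina MiSeq flow-cell, the Cy3-labelled switching-strand clusters were annealed to 100 nM quencher-labelled ATP aptamer, imaged in selection buffer and then after 15 min with 500 uM ATP at 22 °C. Five such cycles were run, with NaOH stripping and re-annealing between them.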
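Further: ATP exposure 15 min at 22 °C before imaging.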

**Q.** With GTGAATTTGC as the sequence, how does the switch fluorescence ratio read?
**A.** 0.992

**Q.** With CTTTTATAAG as the sequence, how does the switch fluorescence ratio read?
**A.** 1.02

**Q.** With TATTTGGAAT as the sequence, how does the switch fluorescence ratio read?
**A.** 1.01

**Q.** GATTGGTCGG was tested. Which switch fluorescence ratio did it give?
**A.** 1

**Q.** With CAGGAGCGGC as the sequence, how does the switch fluorescence ratio read?
**A.** 0.79

**Q.** Which switch fluorescence ratio does the source give for GCCCCTTACC here?
**A.** 1.12

**Q.** How did the switch fluorescence ratio turn out when GTTGCAGCTC was run?
**A.** 1.01

**Q.** CCGGGACAAC was tested. Which switch fluorescence ratio did it give?
**A.** 1.7

**Q.** TTAGATGTTC was tested. Which switch fluorescence ratio did it give?
**A.** 0.991

**Q.** How did the switch fluorescence ratio turn out when AGGTGGGGAA was run?
**A.** 1.04

**Q.** Which switch fluorescence ratio does the source give for CCCGCGTAGT here?
**A.** 1.21

**Q.** TATCTGTACG was tested. Which switch fluorescence ratio did it give?
**A.** 1.04

**Q.** With CCAGTGGTCG as the sequence, how does the switch fluorescence ratio read?
**A.** 0.973

**Q.** Which switch fluorescence ratio does the source give for TATAGTCTCA here?
**A.** 0.986

**Q.** GCTCTATAAC was tested. Which switch fluorescence ratio did it give?
**A.** 1.12

**Q.** With GAGGTTACAA as the sequence, how does the switch fluorescence ratio read?
**A.** 1.03

**Q.** With GACGATCAAT as the sequence, how does the switch fluorescence ratio read?
**A.** 1.79

**Q.** With GTGGGATATC as the sequence, how does the switch fluorescence ratio read?
**A.** 0.971

**Q.** How did the switch fluorescence ratio turn out when ATGGGCGGCT was run?
**A.** 0.986

**Q.** How did the switch fluorescence ratio turn out when TTTCGCACGT was run?
**A.** 1.29

**Q.** For TGCTGTAATC, which switch fluorescence ratio is on record?
**A.** 0.961

**Q.** How did the switch fluorescence ratio turn out when TGGCTTCAGG was run?
**A.** 0.991

**Q.** How did the switch fluorescence ratio turn out when AGTCAGATCA was run?
**A.** 0.991

**Q.** For GCCTATTTG, which switch fluorescence ratio is on record?
**A.** 1

**Q.** Which switch fluorescence ratio does the source give for GAAAGGCTCG here?
**A.** 1.03

**Q.** For TTCGGCGTAC, which switch fluorescence ratio is on record?
**A.** 1.12

**Q.** For CGTGCACGTA, which switch fluorescence ratio is on record?
**A.** 0.978

**Q.** For GGCGCAAAGG, which switch fluorescence ratio is on record?
**A.** 1.21

**Q.** For CGCCCGCGTC, which switch fluorescence ratio is on record?
**A.** 1.54

**Q.** Which switch fluorescence ratio does the source give for TAAAGTGGCC here?
**A.** 1.03

**Q.** For ACATCCCGAT, which switch fluorescence ratio is on record?
**A.** 1.04

**Q.** For ATATGCACGG, which switch fluorescence ratio is on record?
**A.** 1.02

**Q.** TGAGTCTGGT was tested. Which switch fluorescence ratio did it give?
**A.** 0.957

**Q.** Which switch fluorescence ratio does the source give for GGTAATCATG here?
**A.** 1.03

**Q.** For ATAAGGGG, which switch fluorescence ratio is on record?
**A.** 0.976

**Q.** TTATAGCGCC was tested. Which switch fluorescence ratio did it give?
**A.** 0.999

**Q.** GTGTTTGGCA was tested. Which switch fluorescence ratio did it give?
**A.** 0.984

**Q.** Which switch fluorescence ratio does the source give for GACAGACCCG here?
**A.** 1.07

**Q.** For TTACGATTGT, which switch fluorescence ratio is on record?
**A.** 1.05

**Q.** For TTTTAAAGCC, which switch fluorescence ratio is on record?
**A.** 1.01

**Q.** With GCCACTCTTC as the sequence, how does the switch fluorescence ratio read?
**A.** 0.998

**Q.** How did the switch fluorescence ratio turn out when TGGCACGTCT was run?
**A.** 0.994

**Q.** How did the switch fluorescence ratio turn out when GAGTTGACAG was run?
**A.** 0.984

**Q.** For TAGTGGTTGT, which switch fluorescence ratio is on record?
**A.** 0.996

**Q.** AAACCTCTAA was tested. Which switch fluorescence ratio did it give?
**A.** 1.08

**Q.** With GTCATAATGT as the sequence, how does the switch fluorescence ratio read?
**A.** 0.985

**Q.** ATGCCTGGG was tested. Which switch fluorescence ratio did it give?
**A.** 0.99

**Q.** With ATTTTTCTCT as the sequence, how does the switch fluorescence ratio read?
**A.** 1.03

**Q.** CCCCTATTTA was tested. Which switch fluorescence ratio did it give?
**A.** 0.968

**Q.** How did the switch fluorescence ratio turn out when ATTGATTCGA was run?
**A.** 0.973

**Q.** ATACGCGCTT was tested. Which switch fluorescence ratio did it give?
**A.** 1.02

**Q.** How did the switch fluorescence ratio turn out when CCTTAGTGTG was run?
**A.** 1.04

**Q.** How did the switch fluorescence ratio turn out when GGGGGTTCCA was run?
**A.** 0.986

**Q.** Which switch fluorescence ratio does the source give for GGAGATTGGC here?
**A.** 1.05

**Q.** Which switch fluorescence ratio does the source give for CGAACCCGCC here?
**A.** 1.51

**Q.** With GGTCGGTTCA as the sequence, how does the switch fluorescence ratio read?
**A.** 1.02

**Q.** For ACTACTCGGA, which switch fluorescence ratio is on record?
**A.** 1

**Q.** With TTATAGCTGC as the sequence, how does the switch fluorescence ratio read?
**A.** 1.15

**Q.** ACGGGAAGCG was tested. Which switch fluorescence ratio did it give?
**A.** 1.02

**Q.** CACATTGGGG was tested. Which switch fluorescence ratio did it give?
**A.** 0.98

**Q.** How did the switch fluorescence ratio turn out when GAGATTTAAC was run?
**A.** 1.07

**Q.** For GTGGAGCCCG, which switch fluorescence ratio is on record?
**A.** 0.984

**Q.** Which switch fluorescence ratio does the source give for ATTAAAACGT here?
**A.** 1.07

**Q.** For TCGGGCGCTC, which switch fluorescence ratio is on record?
**A.** 1

**Q.** With AAGTTGACTC as the sequence, how does the switch fluorescence ratio read?
**A.** 1

**Q.** CGAAAAGTTA was tested. Which switch fluorescence ratio did it give?
**A.** 0.992

**Q.** TCAGAAATCA was tested. Which switch fluorescence ratio did it give?
**A.** 1.02

**Q.** Which switch fluorescence ratio does the source give for TATTTCCGCT here?
**A.** 1.88

**Q.** For TATGTGCTTA, which switch fluorescence ratio is on record?
**A.** 0.985

**Q.** TATATTATCT was tested. Which switch fluorescence ratio did it give?
**A.** 1.05

**Q.** How did the switch fluorescence ratio turn out when TATGTTTTGG was run?
**A.** 1.01

**Q.** How did the switch fluorescence ratio turn out when TAGGAAGGT was run?
**A.** 1.08

**Q.** With TATGTAGTGC as the sequence, how does the switch fluorescence ratio read?
**A.** 1.03

**Q.** Which switch fluorescence ratio does the source give for TGCGTGAGAG here?
**A.** 1.07

**Q.** Which switch fluorescence ratio does the source give for AATCGTAC here?
**A.** 1.08

**Q.** For GATGTCCAG, which switch fluorescence ratio is on record?
**A.** 0.991

**Q.** Which switch fluorescence ratio does the source give for ACAGTACGCT here?
**A.** 1.43

**Q.** How did the switch fluorescence ratio turn out when TTTTCGAGCG was run?
**A.** 0.99

**Q.** For AACGATGCGC, which switch fluorescence ratio is on record?
**A.** 1.03

**Q.** With TTTGACAGTT as the sequence, how does the switch fluorescence ratio read?
**A.** 0.999

**Q.** For TGGCTCAGTT, which switch fluorescence ratio is on record?
**A.** 1.02

**Q.** Which switch fluorescence ratio does the source give for CGTGGTTGAC here?
**A.** 1.01

**Q.** For GGTAGCTTCC, which switch fluorescence ratio is on record?
**A.** 2.15

**Q.** How did the switch fluorescence ratio turn out when GGGTATATC was run?
**A.** 0.936

**Q.** ACTTATCA was tested. Which switch fluorescence ratio did it give?
**A.** 1.04
